The GPR68 mutational scans of Howard et al. (2025)
The least precise scores are not listed. Not listed are two conditions whose scores span a narrow range. Names with del lack the residues named; names with ins carry added residues between the positions named. For some of these results: The data file names ogerin without a concentration.

B1: GPR68, Q15743 (parent)
chain: MGNITADNSSMSCTIDHTIHQTLAPVVYVTVLVVGFPANCLSLYFGYLQIKARNELGVYLCNLTVADLFYICSLPFWLQYVLQHDNWSHGDLSCQVCGILLYENIYISVGFLCCISVDRYLAVAHPFRFHQFRTLKAAVGVSVVIWAKELLTSIYFLMHEEVIEDENQHRVCFEHYPIQAWQRAINYYRFLVGFLFPICLLLASYQGILRAVRRSHGTQKSRKDQIQRLVLSTVVIFLACFLPYHVLLLVRSVWEASCDFAKGVFNAYHFSLLLTSFNCVADPVLYCFVSETTHRDLARLRGACLAFLTCSRTGRAREAYPLGAPEASGKSGAQGEEPELLTKLHPAFQTPNSPGSGGFPTGRLA

What was measured:
[1] = variants of: B1; assay: cAMP reporter score (Enrich2 score, wild type = 0); higher = more signal; HEK293T, FACS bins
[2] = variants of: B1; assay: surface expression score (Enrich2 score, wild type = 0); higher = more signal; HEK293T, FACS bins

Variant	cAMP reporter score ([1]; pH 5.5)	cAMP reporter score ([1]; pH 6)	cAMP reporter score ([1]; pH 6, modulator: ogerin)	cAMP reporter score ([1]; pH 6.5, modulator: ogerin)	surface expression score [2]
Q225_I226insGS	-1.64	-1.33	-1.52	-1.71	-0.777
R222_D224del	-0.878	–	-1.42	-0.77	0.871
D224W	-0.341	–	-0.446	0.721	0.15
D224T	0.413	1.51	-0.516	-0.455	–
D224Y	-0.418	-0.347	-1.29	-1.11	-0.803
D224E	1.32	1.97	1.43	1.38	1.08
D224I	0.02	-0.521	1.2	-0.238	1.45
D224A	1.3	1.85	0.778	0.822	0.844
D224G	0.344	-0.718	–	-1.57	0.874
D224Q	-0.464	-0.185	-0.043	-0.31	-0.016
D224L	-0.171	-0.858	-0.442	-0.164	0.27
D224N	-0.415	0.217	-0.673	-0.573	-0.228
D224R	-0.594	2.63	0.221	1.28	0.336
D224V	0.74	0.568	1	1.31	0.8
D224F	0.668	-0.858	0.564	-0.456	1.26
D224P	-0.503	-0.789	0.056	-0.642	1.37
D224S	-0.761	-1.55	-2.17	-1.49	0.218
D224H	0.23	0.461	0.348	-0.281	0.347
S221del	0.237	0.517	–	1.57	1.3
V230del	-1.9	-2.02	–	-1.57	-2.42
S215_H216insGSG	-1.03	-0.926	-1.25	-1.23	0.727
K223P	-1.35	0.471	-1.38	-1.28	-0.576
K223D	-1.05	–	-1.06	-1.17	0.306
K223A	0.067	-0.72	-0.669	-2.78	–
K223T	-0.663	-0.778	-0.892	-0.794	2.34
K223H	-1.83	–	-0.287	-0.9	0.962

Variant	cAMP reporter score ([1]; pH 5.5)	cAMP reporter score ([1]; pH 6)	cAMP reporter score ([1]; pH 6, modulator: ogerin)	cAMP reporter score ([1]; pH 6.5, modulator: ogerin)	surface expression score [2]
K223Y	-1.02	–	–	-2.53	0.625
K223W	-1.5	-0.758	-2	-1.69	-0.696
K223C	-0.383	-0.153	-0.693	0.142	1.77
K223F	-0.685	–	-0.646	0.086	1.58
K223N	-0.926	-0.432	-1.59	-1.52	0.448
K223M	-1.24	–	-1.26	-0.475	1.35
K223V	-1.05	-1.16	-0.973	-1.46	0.547
K223E	-1.08	-0.701	-1.52	-1.13	-0.033
K223Q	-0.128	-1.19	0.197	-0.315	1.37
K223L	-0.889	-0.144	-0.934	-0.948	1.37
K223I	-0.366	-1.4	-1.51	-0.673	1.49
K223G	-1.71	-0.499	-1.1	-1.89	1.3
K223R	-0.444	-0.786	-0.229	-1.09	0.666
K223S	-0.896	-1.56	-1.92	-1.43	1.47
D224_Q225insG	-0.565	-0.136	-1.01	-0.509	0.761
L231_S232insGS	-1.85	-0.479	-0.86	-1.03	-2.39
H216_G217del	-1.34	-0.721	-0.486	-0.72	-0.099
K220_S221insGS	-0.741	-0.754	-0.939	-0.432	0.546
K223_Q225del	1.26	0.013	1.24	-0.555	0.947
Q227_L229del	-2.02	-1.23	-1.07	-1.45	0.093
I226del	-2.17	-0.884	–	–	-0.182
S232_T233del	-1.08	-0.658	-1.63	-1.02	-1.61
L231R	-0.724	-1.57	-1.31	-0.665	-1.93
L231V	-0.667	0.533	-0.764	0.127	-1.8
L231F	-0.324	0.568	-0.414	0.228	-0.635
L231S	-0.41	-0.689	–	–	-0.388

Variant	cAMP reporter score ([1]; pH 5.5)	cAMP reporter score ([1]; pH 6)	cAMP reporter score ([1]; pH 6, modulator: ogerin)	cAMP reporter score ([1]; pH 6.5, modulator: ogerin)	surface expression score [2]
L231G	0.2	-0.774	-0.546	-0.857	-0.655
L231H	1.18	0.741	0.464	0.065	-0.521
L231D	-0.606	-1.59	-1.34	-1.04	-3.5
L231C	-0.19	2.9	-0.14	0.656	0.698
L231Q	-1.21	0.047	–	-0.159	-1.93
L231P	-0.764	-0.656	-0.914	-0.754	-0.936
L231Y	-0.481	–	-0.341	1.55	-2.44
L231E	-0.65	-2.31	-0.726	-0.975	-2.05
L231W	0.303	–	–	2.11	–
L231I	0.645	–	0.516	2.87	-1.54
L231K	-0.087	-0.815	-0.595	-1.09	-0.996
L231A	-0.237	–	0.165	-0.131	-0.603
L231T	-1.04	-0.089	-0.924	-0.298	-1.46
S215_H216del	-1.47	-1.24	-1.57	-0.747	-0.328
S215Y	-1.37	-1.58	-1.45	-1.09	-0.225
S215W	-1.48	-1.08	-1.34	-1.48	-0.062
V230_L231insG	-2.27	-1.62	-1.17	-0.627	–
S232_T233insG	-1.69	-1.17	-1.88	–	–
I226_Q227insGS	-0.838	-0.409	-1.07	-0.72	1.6
S232del	-1.57	-0.237	-1.11	-0.67	-2.04
I226_Q227insG	-1.77	-0.789	-1.64	-0.821	0.672
H216_G217insG	-0.379	–	-0.624	-2.7	1.99
K223del	-0.23	-0.246	–	-0.913	1.43
T233_V235del	-0.931	-2.01	-1.99	-0.788	-3.31
Q225_I226del	-0.022	-0.867	–	-0.071	1.78
H216_G217insGSG	-1.17	–	-0.189	-1.19	0.628

Variant	cAMP reporter score ([1]; pH 5.5)	cAMP reporter score ([1]; pH 6)	cAMP reporter score ([1]; pH 6, modulator: ogerin)	cAMP reporter score ([1]; pH 6.5, modulator: ogerin)	surface expression score [2]
G217del	0.856	–	-0.158	1.26	0.26
S232_T233insGS	-1.59	-0.792	–	-1.07	–
D224_I226del	-0.427	-0.656	-0.699	-1.7	0.889
T218_Q219insGS	-0.98	-0.133	-0.624	-2.15	1.39
I226_R228del	-1.55	-0.623	-2.47	-1.04	-0.399
K223_D224del	-1.46	-1.47	-1.24	-0.939	1.15
V234A	-0.015	0.122	-1.06	-1.22	-0.072
V234N	-0.625	-0.171	-0.822	0.122	-0.596
V234T	0.111	0.799	-1.01	0.218	-0.365
V234G	0.107	0.069	–	–	-0.668
V234I	0.443	0.523	0.893	0.031	1.67
V234E	-0.566	-1.58	-0.873	-1.61	-2.41
V234R	-1.81	-2.29	-1.01	-0.81	-3.41
V234P	-0.639	-1.35	-0.922	-0.211	-1.32
V234S	-0.015	-1.48	-0.48	–	-1.4
V234D	-1.14	1.54	-1.37	-0.714	-2.72
V234M	-0.167	-0.686	-0.514	-0.494	-0.117
V234F	-0.415	-1.66	-0.312	0.859	-0.15
V234K	-0.945	-1.94	–	-1.59	-1.16
V234H	-1.46	-1.72	-0.97	-1.72	-2.21
V234C	1.27	–	0.28	–	-0.302
V234Q	0.853	-1	–	-0.199	-1.16
Q225_Q227del	-1.72	–	-1.39	-1.08	0.306
S215_H216insG	-0.671	–	-1.6	-1.84	–
Q227del	-1.97	-0.348	-1.76	-0.532	-0.063
K220D	0.157	-0.269	-0.677	–	–

Variant	cAMP reporter score ([1]; pH 5.5)	cAMP reporter score ([1]; pH 6)	cAMP reporter score ([1]; pH 6, modulator: ogerin)	cAMP reporter score ([1]; pH 6.5, modulator: ogerin)	surface expression score [2]
K220Y	-0.662	0.001	0.222	-0.295	-0.165
K220N	-1.11	-0.966	-0.682	-1.91	-0.274
K220S	-0.005	–	-2.18	0.354	-1.03
K220I	-0.105	-1.09	-0.728	-0.905	-0.423
K220G	0.149	–	-1.03	–	0.505
K220L	0.027	0.094	-0.746	-1.23	0.047
K220C	-1.16	-0.641	-1.28	-1.3	-0.97
K220A	0.957	0.218	-0.018	0.981	1.26
K220H	0.013	–	–	-0.124	0.333
K220T	-0.571	-1.46	-0.565	-0.867	0.493
K220P	-0.253	-0.93	0.391	-0.363	0.478
K220M	-0.422	–	-0.663	-0.715	0.52
K220R	0.52	0.007	–	-1.01	0.952
K220F	-0.414	-1.01	-0.971	-1.08	0.883
K220V	0.519	-0.977	-0.587	-1.37	-0.128
K220Q	0.858	0.46	–	–	0.383
K220W	-0.839	-0.522	-0.874	-1.54	0.766
D224_Q225del	-1.1	-2.06	-1.1	-1.14	0.037
G217_Q219del	-1.05	-1.15	-2.65	-0.512	-0.681
Q219del	-1.38	-1.7	-1.58	-1.37	-0.639
K220del	-1.3	-1.12	-0.748	-0.642	-0.335
L229_V230insGS	-1.03	–	-1.04	-0.909	-2.79
T218_K220del	-0.266	-1.22	-1.52	-0.734	0.385
S221_R222insG	-1.41	-0.678	-1.49	-0.891	-0.124
G217_T218del	-1.55	-1.65	-1.4	-1.72	-0.609
